The whole screen tested about 150,000 compounds, of which about 540 (0.36%) showed an effect of 50% or more. This is one part of the list.

In this test the test system is Plasmodium falciparum. Nature of the test: Primary screen in NF54 nanoGlo assay, in single point, at 2uM, 72h; a lower Z score goes with more inhibition. The class given is functional, Erythrocyte. Conditions: timepoint 72 hour.
Consider `O=C([C@@H]1CCCN1C(=O)c1cncs1)N1CCCCC1`, for which the % Inhibition (commonly the relative decrease from the control value, in per cent) stood at 2% and the Z score is -0.38.

As for `O=C(c1ccc2c(c1)CCCC2)N1CCC[C@H]1c1ccsc1`, the “% Inhibition” value was 1% and the Z score is -0.23.

With `CC(C)Cc1nc(OCC(=O)c2ccccc2)c(C#N)c2c1CCC2`, the “% Inhibition” value is listed as -19% and the Z score is listed as 2.02.

As to `CN(C(=O)[C@H]1CCc2nnnn2CC1)c1ccc(F)cc1`, the “% Inhibition” value is on record as -1% and the Z score was found to be 0.17.

For the compound `Cc1cc(C#N)c(=O)[nH]c1C(=O)NCCCC(C)C`, the “% Inhibition” value is on record as -9% and the Z score is on record as 1.25.

For `Cc1cc(Cl)cc(C)c1CNCCNC(=O)N(C)C`, the “% Inhibition” value was -2% and the Z score came to 0.29.

Consider `COc1ccc(Cc2c(C)nc(C)nc2N2CCN(C(=O)c3cccs3)CC2)cc1`, for which the “% Inhibition” value is 4% and the Z score is -0.34.

On to `CN1CCCNC(=O)C12CCN(C(=O)c1nc3ccccc3[nH]1)CC2`, for which the “% Inhibition” value was determined as 3% and the Z score is -0.35.

For `CC(C)Cn1ncc(NC(=O)N2CCc3cc(F)ccc3C2)c1C(F)F`, the “% Inhibition” value is 13% and the Z score is on record as -1.71.

On to `Cc1c(Cl)cc(C(=O)N(C)[C@@H](C)c2cncs2)cc1Cl`, for which the “% Inhibition” value is -9% and the Z score amounted to 1.31.

Take `CCOC(=O)N1CC[C@H](NCc2nc3cc(C)ccc3[nH]2)C1`: the “% Inhibition” value is reported as -1% and the Z score is 0.13.

Regarding `CCn1cc(C2OCCC2CNCc2ccc(OC)c(C#N)c2)cn1` (stereo not drawn), the “% Inhibition” value is -3% and the Z score came out at 0.5.

As to `CN(Cc1csc(-c2cccs2)n1)C(=O)c1ccc2scnc2c1`, the “% Inhibition” value is listed as 2% and the Z score is recorded as -0.29.

In the case of `Cn1cc(Cl)cc1C(=O)N1CC[C@](C)(O)[C@@H](O)C1`, the “% Inhibition” value was found to be 1% and the Z score is given as -0.13.

Regarding `O=C(c1noc2c1CCCC2)N1CCC(n2c(=O)[nH]c3ccccc3c2=O)CC1`, the “% Inhibition” value is -15% and the Z score stood at 1.95.

Take `Cc1nnc(N2CCC[C@H]2COc2ccc(F)cc2)nc1C`: the “% Inhibition” value was -22% and the Z score stood at 4.29.

Consider `Cc1c(NC(=O)COc2ccc(OCc3ccccc3)cc2)c(=O)n(-c2ccccc2)n1C`, for which the “% Inhibition” value is recorded as 9% and the Z score was -1.93.

Consider `O=C(Nc1ccc(N2CCCS2(=O)=O)cc1)c1ccc2nsnc2c1`, for which the “% Inhibition” value was found to be 0% and the Z score was 0.05.

As for `COc1cc(F)c(CN(C)Cc2cc(C3CC3)[nH]n2)c(F)c1`, the “% Inhibition” value is given as -3% and the Z score is reported as 0.42.

Turning to `CCCCN(CC(=O)N(Cc1ccco1)C[C@H]1CCCO1)C(=O)COC`, the “% Inhibition” value turned out to be 4% and the Z score is listed as -0.57.

`CCN=C(NCCOC)NCc1ccc(F)c(COC)c1`: the “% Inhibition” value was -13% and the Z score is reported as 1.21.

As to `COC[C@@]1(C(=O)OC(C)(C)C)CCCN1CCC(=O)NC(N)=O`, the “% Inhibition” value is given as -8% and the Z score was determined as 1.18.

As to `Cc1ccccc1CN1CCCN(C(=O)c2cnsn2)CC1`, the “% Inhibition” value is listed as 8% and the Z score is reported as -0.99.

For the compound `Cc1sc(NC(=O)C(C)C)c(C(=O)N2CCn3cncc3C2)c1C`, the “% Inhibition” value was 11% and the Z score is listed as -1.58.

As for `c1ccc2c(CNc3nc4ccccc4n3CCN3CCOCC3)cccc2c1`, the “% Inhibition” value is recorded as -8% and the Z score is 0.69.

As to `COCCC(C)NC(=O)C(C)Oc1ccccc1Br` (stereo not drawn), the “% Inhibition” value is on record as -12% and the Z score came to 1.12.

With `CCCc1nc(N[C@H]2CN(C(C)C)C[C@@H]2OC)c2cnn(C)c2n1`, the “% Inhibition” value was -2% and the Z score came to 0.24.

`O=C(O)COc1ccc(CN2CCO[C@H]3CCCC[C@@H]32)cc1`: the “% Inhibition” value is -11% and the Z score is 2.04.

For the compound `CN1N=C(C(=O)Nc2cccc3c2CCCC3)CCC1=O`, the “% Inhibition” value is -14% and the Z score is 1.23.

On to `CCCC(=O)OC[C@@H](O)CN(Cc1ccccc1)Cc1cccn1Cc1ccc(C(C)(C)C)cc1`, for which the “% Inhibition” value is listed as -7% and the Z score worked out at 1.25.

Consider `Cn1c(=O)c2c(ncn2CC(=O)N2CC(n3cc(-c4ccccc4)nn3)C2)n(C)c1=O`, for which the “% Inhibition” value was -20% and the Z score came to 3.49.

For `COc1ncccc1C(=O)Nc1cc(Br)c(=O)n(C)c1`, the “% Inhibition” value worked out at 0% and the Z score was -0.03.

As for `COc1ccccc1-c1n[nH]cc1CN1CC(F)(F)C[C@H]1CN1CCCCCC1`, the “% Inhibition” value was -7% and the Z score is on record as 1.23.

In the case of `O=S(=O)(c1ccc(Cl)s1)N1CCC(Oc2cccnn2)CC1`, the “% Inhibition” value is listed as -10% and the Z score is 1.9.

For `COCCN1C[C@H]2CN(Cc3ccccc3C)CCN2C1=O`, the “% Inhibition” value is reported as -13% and the Z score amounted to 1.95.

`CN(C(=O)c1cc(-c2ccccc2)c(N2CCOCC2)s1)C1(C#N)CCC1`: the “% Inhibition” value was -9% and the Z score was 1.01.

As for `CCc1cc2c(NC(c3ccccc3)C3CCCO3)ncnc2s1` (stereo not drawn), the “% Inhibition” value is on record as -8% and the Z score was 0.94.

Consider `COC(=O)[C@@H](C)NC(=O)[C@H]1CN(S(=O)(=O)c2ccccc2)CCN1C(C)=O`, for which the “% Inhibition” value was 0% and the Z score is 0.07.

With `O=C(c1cnn2cccnc12)N(Cc1ccccc1)c1ccccc1`, the “% Inhibition” value is recorded as -22% and the Z score is reported as 3.

Consider `Cc1nc(COC(=O)c2c[nH]nc2-c2c(F)cccc2F)no1`, for which the “% Inhibition” value came to 32% and the Z score is reported as -0.69.

With `CS(=O)(=O)CCNC(=O)Nc1snc2ccccc12`, the “% Inhibition” value is listed as -6% and the Z score is reported as 1.14.

For the compound `CCn1cc(S(=O)(=O)N2CCCCCCNC(=O)[C@@H]3CCCC[C@@H]32)cn1`, the “% Inhibition” value was -6% and the Z score was found to be 0.7.

As to `O=C(NCCn1nc(-c2ccncc2)ccc1=O)Nc1ccccc1`, the “% Inhibition” value was -13% and the Z score worked out at 2.16.

With `CCNc1ccnc(N[C@H]2CCN(C(C)(C)C)C2)n1`, the “% Inhibition” value is recorded as -18% and the Z score amounted to 3.04.

With `Cc1ccc(-c2cn3c(n2)CO[C@@H](CNC(=O)c2ccccc2)C3)cc1`, the “% Inhibition” value was found to be 1% and the Z score is recorded as -0.09.

As for `O=C(CCCN1CCCCC1)NCc1csc(N2CCOCC2)n1`, the “% Inhibition” value was -17% and the Z score is given as 1.55.

Consider `COCCNC(=O)Cn1nc(C)c2sc(-c3ccccc3)nc2c1=O`, for which the “% Inhibition” value is listed as -10% and the Z score came out at 1.39.

In the case of `Cc1cccc2ncnc(N3CCC4(CCOCC4)[C@@H]3C)c12`, the “% Inhibition” value was -4% and the Z score stood at 0.56.

In the case of `COCC1(CNC(=O)[C@H]2CCOC2)CCC1`, the “% Inhibition” value is reported as -12% and the Z score was determined as 2.12.

Turning to `O=C(Nc1nc(CN2CCCCCC2)cs1)c1occc1-c1ccccc1`, the “% Inhibition” value is 1% and the Z score is given as -0.08.

With `C[C@H]1C(=O)NCC2(COC2)N1S(=O)(=O)c1cc(F)cc(Cl)c1`, the “% Inhibition” value is -7% and the Z score amounted to 1.38.

`CCC(=O)Nc1ccc2c(c1)cc(C(=O)NCCN1CCOCC1)n2Cc1ccc(F)cc1`: the “% Inhibition” value was -2% and the Z score is given as 0.31.

With `Cc1ccc(-c2noc(-c3ccccc3S(=O)(=O)NCc3cccs3)n2)cc1`, the “% Inhibition” value worked out at 5% and the Z score is on record as -0.61.

`Cc1ccc(-c2nc3nc(C)c(CC(=O)NCc4ccccc4)c(C)n3n2)cc1`: the “% Inhibition” value is -6% and the Z score is 0.92.

Values taken from ChEMBL document CHEMBL4888484, “Replenishing the malaria drug discovery pipeline: Screening and hit evaluation of the MMV Hit Generation Library 1 (HGL1) against asexual blood stage Plasmodium falciparum ,using a nano luciferase reporter read-out” (2022).
